US20230270857A1
Some values that stand alone complete this part of the results.

Biological target: CD3 on ex vivo expanded human T cells (Homo sapiens) (UniProt P07766)
Test: flow cytometry referenced to quantum beads; 0.05 to 5 µg/10^6 cells of BsAb

For “HER2-BsAb (trastuzumab x huOKT3, IgG-[L]-scFv format) (bispecific antibody)”, the BsAb molecules bound per T cell (ABC) (molecules per T cell) (arming dose 0.05 µg/10^6 cells) was 600 and the BsAb molecules bound per T cell (ABC) (molecules per T cell) (arming dose 5 µg/10^6 cells) was 20400.
